Experimental data reported in the BET-seq Pho4 binding data (Le et al. 2018).
This is one part of the list. Values were computed here from the reads of four pooled replicates and scatter widely.

Target: T1, Pho4 (S. cerevisiae) (UniProt P07270)
T1 sequence: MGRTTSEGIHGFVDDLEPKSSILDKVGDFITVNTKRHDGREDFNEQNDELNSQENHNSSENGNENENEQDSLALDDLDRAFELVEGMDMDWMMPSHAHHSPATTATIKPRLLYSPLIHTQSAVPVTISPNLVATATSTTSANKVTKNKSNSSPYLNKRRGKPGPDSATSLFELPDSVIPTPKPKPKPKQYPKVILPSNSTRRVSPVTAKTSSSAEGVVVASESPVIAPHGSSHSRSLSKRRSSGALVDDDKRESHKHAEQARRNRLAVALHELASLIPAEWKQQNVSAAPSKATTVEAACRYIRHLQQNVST
Assay: relative binding free energy (BET-seq); higher = weaker binding
Conditions: reference: library average

Sequence | relative binding free energy
CGTGTCACGTGGAGGT | 0.08 kcal/mol
AGTAGCACGTGAGTTG | 0.12 kcal/mol
ATGCTCACGTGTGCTT | 0.15 kcal/mol
GGATGCACGTGCTGTT | -0.02 kcal/mol
GGGACCACGTGGGCGG | -0.11 kcal/mol
ACGTACACGTGTGTAT | 0.13 kcal/mol
TGTGTCACGTGATATT | 0.27 kcal/mol
TGGACCACGTGGGAGA | -0.03 kcal/mol
AGGTTCACGTGGTGCG | 0.3 kcal/mol
ATTATCACGTGTACTG | 0.09 kcal/mol
TAGGTCACGTGTAAAG | 0.25 kcal/mol
GGGATCACGTGGGTGA | 0.08 kcal/mol
TTTGTCACGTGCTAGG | 0 kcal/mol
GAAGGCACGTGAGTAT | 0.18 kcal/mol
ACTTGCACGTGTTGAG | 0.01 kcal/mol
GCGGTCACGTGCGTGC | 0.15 kcal/mol
CTAGGCACGTGGCGGT | -0.15 kcal/mol
GGGTGCACGTGTACGT | 0.04 kcal/mol
GGGCGCACGTGGCTTG | -0.05 kcal/mol
AGTTGCACGTGAGGAG | 0.17 kcal/mol
GGATACACGTGTGTGG | 0.11 kcal/mol
GTGTCCACGTGAGGTT | 0.3 kcal/mol
TTCCACACGTGGGGTG | -0.09 kcal/mol

Sequence | relative binding free energy
GCGAGCACGTGTCGGT | 0 kcal/mol
ATGCACACGTGTGGTA | 0.06 kcal/mol
GATAGCACGTGGGCTT | -0.1 kcal/mol
GAGTGCACGTGGCTGG | -0.1 kcal/mol
TTGTGCACGTGGTAAG | 0.01 kcal/mol
CCTGGCACGTGGAGGT | -0.16 kcal/mol
GTCATCACGTGTATGG | 0.23 kcal/mol
TTGATCACGTGCGGTA | 0.08 kcal/mol
TGGTTCACGTGAGCTA | 0.39 kcal/mol
AAGCACACGTGGTGTT | 0.02 kcal/mol
GGGGACACGTGGTTCA | -0.03 kcal/mol
AAGTTCACGTGTCGAG | 0.44 kcal/mol
TCGTTCACGTGGTGAT | 0.22 kcal/mol
AGGCACACGTGTGTGG | 0.11 kcal/mol
GGTATCACGTGATGAG | 0.21 kcal/mol
CTAGGCACGTGTTTAA | -0.07 kcal/mol
ATGAGCACGTGTAAGT | -0.03 kcal/mol
GAGTGCACGTGTGGGG | 0.14 kcal/mol
TGACGCACGTGGGGAA | -0.24 kcal/mol
TGAAGCACGTGGGATA | -0.1 kcal/mol
TGATTCACGTGATCAG | 0.34 kcal/mol
TGTGTCACGTGACTCG | 0.19 kcal/mol
TATCTCACGTGCGTGT | 0 kcal/mol

Sequence | relative binding free energy
GTCTTCACGTGAGAGG | 0.47 kcal/mol
AAATGCACGTGGGTCT | -0.03 kcal/mol
GATGGCACGTGCAGGA | -0.07 kcal/mol
ATAGTCACGTGGGCTG | -0.09 kcal/mol
GTTGCCACGTGGGGGA | -0.23 kcal/mol
AATTTCACGTGTTTAA | 0.22 kcal/mol
GTTGACACGTGGGTAT | 0.08 kcal/mol
GGGATCACGTGTTAGG | 0.08 kcal/mol
GTTTACACGTGTAGAT | 0.28 kcal/mol
GTATGCACGTGTGGTA | 0.04 kcal/mol
ATTAACACGTGTGTGT | -0.03 kcal/mol
GGTTACACGTGCAGGT | 0.02 kcal/mol
AAGGACACGTGGGATT | -0.04 kcal/mol
TTATACACGTGATTGG | 0.04 kcal/mol
GGTATCACGTGAGTTT | 0.35 kcal/mol
GGCGACACGTGGTGAG | 0.05 kcal/mol
TTGGGCACGTGTTCTG | -0.02 kcal/mol
TTGCGCACGTGAAATG | 0.09 kcal/mol
GCTTACACGTGTATGT | 0.15 kcal/mol
TAAGTCACGTGATTGA | 0.11 kcal/mol
GAGGTCACGTGAAATT | 0.48 kcal/mol
TTAGACACGTGGGTCT | -0.08 kcal/mol
TTGTGCACGTGATCGG | 0.04 kcal/mol

Sequence | relative binding free energy
GGCGTCACGTGGGATT | 0.07 kcal/mol
GGATACACGTGAGGGT | 0.3 kcal/mol
TGTTGCACGTGCAGGC | -0.13 kcal/mol
AGGTTCACGTGCGCTT | 0.22 kcal/mol
TGATGCACGTGGTAAA | -0.02 kcal/mol
TGTGACACGTGCGTTC | 0.04 kcal/mol
GGAAGCACGTGTGGCA | -0.12 kcal/mol
AGGTTCACGTGGATTC | 0.33 kcal/mol
AGCCGCACGTGGGGGA | -0.17 kcal/mol
TTAGACACGTGATAGT | 0.12 kcal/mol
AGTTGCACGTGCCGTT | 0.03 kcal/mol
TATTCCACGTGCTTTT | 0.11 kcal/mol
TCGGGCACGTGGAATG | -0.06 kcal/mol
GGATACACGTGGCTGG | -0.01 kcal/mol
TTTGACACGTGTACTT | -0.14 kcal/mol
GGCTTCACGTGGCAGG | 0.35 kcal/mol
TATCGCACGTGCTGTG | -0.09 kcal/mol
TGTTTCACGTGGGGAA | 0.19 kcal/mol
GGGGACACGTGTGGCA | 0.09 kcal/mol
CGGTTCACGTGAAGAT | 0.39 kcal/mol
CGTATCACGTGTGTGA | 0.22 kcal/mol
ATTCGCACGTGGTGGC | -0.08 kcal/mol
TATGTCACGTGTGAGG | 0.09 kcal/mol

Sequence | relative binding free energy
TGTGGCACGTGCTGGG | -0.09 kcal/mol
TGCATCACGTGGGAAT | 0.21 kcal/mol
AGTAGCACGTGCGTAG | -0.15 kcal/mol
ATTGGCACGTGTGAAA | 0.02 kcal/mol
AACTTCACGTGGTGTT | 0.16 kcal/mol
CGGTGCACGTGTGGAG | -0.05 kcal/mol
ATTGACACGTGGTGAC | 0.02 kcal/mol
GTTGACACGTGGGGTG | -0.07 kcal/mol
TGGGACACGTGTTAAT | 0.09 kcal/mol
AGTATCACGTGATTTT | 0.32 kcal/mol
ATTTGCACGTGGAGAA | 0.04 kcal/mol
TGGAGCACGTGGGTCG | -0.29 kcal/mol
AATGTCACGTGTAGAT | 0.28 kcal/mol
CGAAGCACGTGGCGTG | -0.12 kcal/mol
CTATGCACGTGAGTTA | 0.14 kcal/mol
AAGTTCACGTGCAGTT | 0.22 kcal/mol
TGATGCACGTGAGTGC | 0.07 kcal/mol
AAGTACACGTGAGTAG | 0.24 kcal/mol
GTTCTCACGTGTGGGA | 0.08 kcal/mol
GATGGCACGTGTTCTG | 0.1 kcal/mol
AGTGACACGTGGCTTT | -0.21 kcal/mol
GGGGTCACGTGCAGAT | 0.09 kcal/mol
GGTTACACGTGGGGGT | 0.11 kcal/mol
